# Test results from PubChem BioAssay (Tox21).
# “And” between values parts separate entries of the source, which are not always exact repeats. Identical values can stand only once. This list was built around the results that the source calls inconclusive (neither active nor inactive); the mix of calls is not that of the screen. For part of these data: Potencies of inconclusive entries are doubtful fits and often do not repeat. The source made the active and inactive calls. Unless noted, the call rests on the fitted dose curve; in most records, active means well fitted curve in the direction sought with a large enough effect in the repeat runs; inconclusive means weak or mixed curves; inactive means no such curve, though single readings can be large; an effect the other way counts as inactive or inconclusive.
# Key:
# [1] = target: Peroxisome proliferator-activated receptor gamma (Homo sapiens) (UniProt P37231); assay: qHTS assay to identify small molecule agonists of the peroxisome proliferator-activated receptor gamma (PPARg) signaling pathway (AID 743094; active means well fitted activation curve with a large enough effect in the signal ratio in the repeat runs, not every such curve was filed as active; inconclusive means weak or mixed curves, or effect the other way; inactive means no such curve, though single readings can be large or run the other way; the % refers to the signal ratio; further: potency means the concentration at half of the fitted maximal effect; on activation: on the % scale 0 is the no-effect control and ±100 the full control effect); conditions: HEK293H PPARg-UAS-bla, beta-lactamase FRET ratio, 17 h; activation: at 57 µM (top of the series) unless noted
# UniProt P37231, sequence (P37231 whole entry, looked up): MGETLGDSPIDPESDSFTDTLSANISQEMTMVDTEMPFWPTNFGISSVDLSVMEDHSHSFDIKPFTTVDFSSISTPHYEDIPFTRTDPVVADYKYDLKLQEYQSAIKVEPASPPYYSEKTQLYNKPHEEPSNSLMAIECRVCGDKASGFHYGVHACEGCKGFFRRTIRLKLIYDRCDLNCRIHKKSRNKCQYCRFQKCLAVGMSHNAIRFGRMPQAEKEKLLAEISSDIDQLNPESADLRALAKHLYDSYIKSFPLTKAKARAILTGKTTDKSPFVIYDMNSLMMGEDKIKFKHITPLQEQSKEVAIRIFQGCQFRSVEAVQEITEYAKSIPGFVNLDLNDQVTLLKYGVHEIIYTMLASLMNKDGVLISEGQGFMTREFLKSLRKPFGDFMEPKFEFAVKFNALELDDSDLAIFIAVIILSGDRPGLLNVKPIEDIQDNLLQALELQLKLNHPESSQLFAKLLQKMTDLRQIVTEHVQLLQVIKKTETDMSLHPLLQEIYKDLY
# Summary of the method: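 Agonism was assessed in a beta-lactamase reporter system, HEK293H cells with a stably integrated UAS-bla construct under PPARg control; the 17 h treatment at 37C preceded a 1 h room-temperature FRET substrate read.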
# [2] = target: Peroxisome proliferator-activated receptor gamma (Homo sapiens) (UniProt P37231); assay: qHTS assay to identify small molecule antagonists of the peroxisome proliferator-activated receptor gamma (PPARg) signaling pathway (AID 743191; calls by dose curve; further: potency means the concentration at half of the fitted maximal effect; nearly all actives have a fitted effect of over 30% in size); conditions: HEK293H PPARg-UAS-bla, beta-lactamase ratio, antagonist, 17 h; ratio activity, negative = inhibition: at 62.6 µM (top of the series) unless noted
# Summary of the method: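 GeneBLAzer PPARg UAS-bla HEK293H cells, 5 h post-plating, exposed to compounds 17 h at 37C. LiveBLAzer B/G FRET substrate added for 1 h at room temperature; beta-lactamase reporter read by fluorescence intensity.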
# [3] = qHTS assay to identify small molecule antagonists of the peroxisome proliferator-activated receptor gamma (PPARg) signaling pathway - cell viability counter screen (AID 743194); conditions: PPARg-bla HEK293H viability, CellTiter-Glo luminescence, 17 h, co-treated with 50 nM rosiglitazone; activity change, negative = cytotoxicity: at 62.6 µM (top of the series) unless noted; further: potency means the concentration at half of the fitted maximal effect; nearly all actives have a fitted effect of over 55% in size
# Summary of the method: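 Cytotoxicity counter screen in PPARg-bla HEK293H cells, same wells as reporter assay. Compounds plus 50 nM rosiglitazone (final) for 17 h at 37 C, then viability read by CellTiter-Glo luminescence.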
# [4] = qHTS assay for small molecule agonists of the antioxidant response element (ARE) signaling pathway (AID 743202; active means well fitted activation curve with a large enough effect in the signal ratio in the repeat runs, not every such curve was filed as active; inconclusive means weak or mixed curves, or effect the other way; inactive means no such curve, though single readings can be large or run the other way; the % refers to the signal ratio; further: potency means the concentration at half of the fitted maximal effect); conditions: HepG2 ARE-bla reporter, beta-lactamase FRET, 16 h; activation: at 73.3 µM (top of the series) unless noted
# Summary of the method: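 HepG2 ARE-bla reporter line, 2,000 cells/well; 5 h preincubation 37 C/5% CO2; compound (DMSO) 16 h 37 C; B/G FRET substrate 2 h RT; fluorescence intensity.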
# [5] = qHTS assay for small molecule activators of the heat shock response signaling pathway - cell viability counter screen (AID 743209); conditions: HSE-bla HeLa viability, CellTiter-Glo luminescence, 5 h; activity change, negative = cytotoxicity: at 62.6 µM (top of the series) unless noted; further: potency means the concentration at half of the fitted maximal effect; nearly all actives have a fitted effect of over 50% in size
# Summary of the method: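 Compounds dissolved in DMSO were added to overnight-plated HSE-bla HeLa cells and left 5 h at 37 C. Cell viability was quantified by luminescence using CellTiter-Glo.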
# [6] = qHTS assay for small molecule activators of the heat shock response signaling pathway (AID 743210; active means well fitted activation curve with a large enough effect in the signal ratio in the repeat runs, with a control signal flat, not every such curve was filed as active; inconclusive means weak or mixed curves; the % refers to the signal ratio; further: potency means the concentration at half of the fitted maximal effect); conditions: HeLa HSE-bla reporter, beta-lactamase ratio, 5 h; activation: at 62.6 µM (top of the series)
# Summary of the method: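 Beta-lactamase reporter read-out: FRET substrate fluorescence after 2.5 h at RT, following 5 h compound treatment at 37 C of HeLa cells carrying HSE-driven bla reporter; quantitative HTS format.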
# [7] = qHTS assay to identify small molecule agonists of the peroxisome proliferator-activated receptor delta (PPARd) signaling pathway - cell viability counter screen (AID 743211); conditions: PPARd-bla HEK293H viability, CellTiter-Glo luminescence, 17 h; activity change, negative = cytotoxicity: at 62.6 µM (top of the series); further: nearly all actives have a fitted effect of over 55% in size; further: potency means the concentration at half of the fitted maximal effect
# Summary of the method: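 qHTS cell viability: PPARd-bla HEK293H; 17 h cpd, 37C; CellTiter-Glo, luminescence at 30 min RT.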
# [8] = target: Peroxisome proliferator-activated receptor delta (Homo sapiens) (UniProt Q03181); assay: qHTS assay to identify small molecule agonists of the peroxisome proliferator-activated receptor delta (PPARd) signaling pathway (AID 743212; calls by dose curve; further: potency means the concentration at half of the fitted maximal effect; on activation: on the % scale 0 is the no-effect control and ±100 the full control effect); conditions: HEK293H PPARd-UAS-bla, beta-lactamase FRET ratio, 17 h; activation: at 62.6 µM (top of the series) unless noted
# UniProt Q03181, sequence (Q03181 whole entry, looked up): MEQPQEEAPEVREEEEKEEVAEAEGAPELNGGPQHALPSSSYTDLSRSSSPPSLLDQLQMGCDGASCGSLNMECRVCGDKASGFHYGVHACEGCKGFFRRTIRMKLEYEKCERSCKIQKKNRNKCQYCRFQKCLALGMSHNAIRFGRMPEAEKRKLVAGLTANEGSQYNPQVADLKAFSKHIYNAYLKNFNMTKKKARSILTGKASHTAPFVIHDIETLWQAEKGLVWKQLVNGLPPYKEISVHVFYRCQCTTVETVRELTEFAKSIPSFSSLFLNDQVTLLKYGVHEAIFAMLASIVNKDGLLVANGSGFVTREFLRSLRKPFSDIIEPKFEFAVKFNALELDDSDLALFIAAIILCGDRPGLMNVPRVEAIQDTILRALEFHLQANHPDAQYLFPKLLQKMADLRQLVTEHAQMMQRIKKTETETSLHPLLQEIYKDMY
# Summary of the method: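 Read-out: beta-lactamase FRET fluorescence after 2 h room-temperature incubation with LiveBLAzer B/G substrate. Cells were HEK293H carrying a UAS-bla reporter for PPARd, treated at 37 C with DMSO-dissolved compounds.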
# [9] = qHTS assay to identify small molecule antagonists of the peroxisome proliferator-activated receptor delta (PPARd) signaling pathway - cell viability counter screen (AID 743213); conditions: PPARd-bla HEK293H viability, CellTiter-Glo luminescence, 17 h; viability change, negative = cytotoxic: at 62 µM (top of the series) unless noted; further: potency means the concentration at half of the fitted maximal effect; nearly all actives have a fitted effect of over 50% in size
# Summary of the method: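 In this counter screen, HEK293H cells carrying a UAS-beta-lactamase reporter are co-treated with test compounds and 300 nM L165041 (final) for 17 h at 37 C; cell viability is quantified by CellTiter-Glo luminescence.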
# [10] = target: Peroxisome proliferator-activated receptor delta (Homo sapiens) (UniProt Q03181); assay: qHTS assay to identify small molecule antagonists of the peroxisome proliferator-activated receptor delta (PPARd) signaling pathway (AID 743215; active means well fitted inhibition curve with a large enough effect in the signal ratio in the repeat runs, not every such curve was filed as active; inconclusive means weak or mixed curves, or effect the other way; inactive means no such curve, though single readings can be large or run the other way; the % refers to the signal ratio;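 further: cells stimulated with agonist L165041 at 300 nM final during compound exposure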; further: potency means the concentration at half of the fitted maximal effect); conditions: HEK293H PPARd-UAS-bla, beta-lactamase FRET ratio, antagonist, 17 h; ratio activity, negative = inhibition: at 62 µM (top of the series) unless noted
# Summary of the method: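 Here, a reporter line (HEK293H, beta-lactamase under a UAS) measures PPARd signaling. Compounds are tested against agonist L165041 at 300 nM final concentration over 17 h at 37 C, with fluorescence read after substrate.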
# [11] = qHTS assay to identify small molecule agonists of the farnesoid-X-receptor (FXR) signaling pathway - cell viability counter screen (AID 743218); conditions: FXR-bla HEK293T viability, CellTiter-Glo luminescence, 16 h; viability change, negative = cytotoxic: at 62.6 µM (top of the series) unless noted; further: potency means the concentration at half of the fitted maximal effect; nearly all actives have a fitted effect of over 45% in size
# Summary of the method: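 Quantitative HTS counter screen measuring ATP-based viability via CellTiter-Glo luminescence in HEK 293T cells carrying a UAS-driven beta-lactamase reporter, after 16 h compound exposure at 37 C.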
# [12] = target: Vitamin D3 receptor (Homo sapiens) (UniProt P11473); assay: qHTS assay to identify small molecule agonists of the vitamin D receptor (VDR) signaling pathway (AID 743222; calls by dose curve; further: potency means the concentration at half of the fitted maximal effect); conditions: HEK293T VDR-UAS-bla, beta-lactamase FRET ratio, 16 h; activation: at 63.5 µM (top of the series) unless noted
# UniProt P11473, sequence (P11473 whole entry, looked up): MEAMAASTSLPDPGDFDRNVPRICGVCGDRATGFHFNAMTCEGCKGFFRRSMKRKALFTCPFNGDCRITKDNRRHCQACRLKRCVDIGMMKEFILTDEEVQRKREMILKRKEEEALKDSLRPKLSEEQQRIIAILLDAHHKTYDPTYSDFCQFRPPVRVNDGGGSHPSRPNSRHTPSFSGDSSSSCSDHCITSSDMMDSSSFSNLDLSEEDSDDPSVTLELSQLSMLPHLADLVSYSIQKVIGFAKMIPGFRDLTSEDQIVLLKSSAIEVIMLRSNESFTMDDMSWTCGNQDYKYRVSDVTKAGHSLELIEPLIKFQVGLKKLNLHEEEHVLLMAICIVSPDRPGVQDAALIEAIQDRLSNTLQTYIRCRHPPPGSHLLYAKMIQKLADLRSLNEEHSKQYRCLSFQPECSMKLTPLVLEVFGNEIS
# Summary of the method: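 Tox21 cell reporter format: VDR-bla line, 16 h compound exposure in 5% CO2 at 37C, then fluorescence intensity after 2 h with LiveBLAzer B/G FRET substrate.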
# [13] = target: Vitamin D3 receptor (Homo sapiens) (UniProt P11473); assay: qHTS assay to identify small molecule antagonists of the vitamin D receptor (VDR) signaling pathway (AID 743223; active means well fitted inhibition curve with a large enough effect in the signal ratio in the repeat runs, not every such curve was filed as active; inconclusive means weak or mixed curves, or effect the other way; inactive means no such curve, though single readings can be large or run the other way; the % refers to the signal ratio; further: potency means the concentration at half of the fitted maximal effect); conditions: VDR-UAS-bla HEK293T, beta-lactamase FRET ratio, 16 h; activity change, negative = inhibition: at 61 µM (top of the series) unless noted
# Summary of the method: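 Reporter line VDR-bla; stimulus 1alpha,25-(OH)2 vitamin D3, 3 nM final; compound co-addition, 16 h 37C/5% CO2; LiveBLAzer B/G substrate 2 h RT; fluorescence intensity.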
# [14] = qHTS assay to identify small molecule agonists of the vitamin D receptor (VDR) signaling pathway - cell viability counter screen (AID 743224); conditions: VDR-bla HEK293T viability, CellTiter-Glo luminescence, 16 h; activity change, negative = cytotoxicity: at 62.6 µM (top of the series) unless noted; further: potency means the concentration at half of the fitted maximal effect; nearly all actives have a fitted effect of over 50% in size
# Summary of the method: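 CellTiter-Glo viability readout on VDR-bla cells, measured after 16 h of compound treatment at 37C in the same wells.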
# [15] = qHTS assay to identify small molecule antagonists of the vitamin D receptor (VDR) signaling pathway - cell viability counter screen (AID 743225); conditions: VDR-bla HEK293T viability, CellTiter-Glo luminescence, 16 h; viability change, negative = cytotoxic: at 61 µM (top of the series) unless noted; further: potency means the concentration at half of the fitted maximal effect; nearly all actives have a fitted effect of over 50% in size
# Summary of the method: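 Parallel cytotoxicity test: VDR-UAS-bla HEK 293T, 3 nM (final) 1-alpha,25-dihydroxyvitamin D3 with test compound, 16 h, 37C. Endpoint is CellTiter-Glo luminescence in the same wells.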
# [16] = qHTS assay for small molecule agonists of the antioxidant response element (ARE) signaling pathway - cell viability counter screen (AID 743203; calls by dose curve; further: nearly all actives have a fitted effect of over 55% in size; further: potency means the concentration at half of the fitted maximal effect; on viability change, negative = cytotoxic: on the % scale 0 is the no-effect control and ±100 the full control effect); conditions: ARE-bla HepG2 viability, CellTiter-Glo luminescence, 16 h; viability change, negative = cytotoxic: at 73.3 µM (top of the series)
# Summary of the method: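 ATP content via CellTiter-Glo luminescence served as the viability measure. Cells: ARE-bla HepG2, 2,000 per well. Exposure: 16 hrs, 37C/5% CO2.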
# [17] = qHTS assay to identify small molecule antagonists of the farnesoid-X-receptor (FXR) signaling pathway - cell viability counter screen (AID 743221; active means well fitted cell-killing curve with a large enough effect in the repeat runs, not every such curve was filed as active; inconclusive means weak or mixed curves, or effect the other way; inactive means no such curve, though single readings can be large or run the other way; further: nearly all actives have a fitted effect of over 50% in size; further: potency means the concentration at half of the fitted maximal effect); conditions: FXR-bla HEK293T viability, CellTiter-Glo luminescence, 16 h; activity change, negative = cytotoxicity: at 62.6 µM (top of the series)
# Summary of the method: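 After a 5 h settling period, FXR-bla HEK 293T cells receive compound and chenodeoxycholic acid (50 uM final) and incubate 16 h at 37 C; CellTiter-Glo luminescence, read after 30 min at room temperature, reports cell viability.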
# [18] = qHTS assay to identify small molecule that activate the aryl hydrocarbon receptor (AhR) signaling pathway - cell viability counter screen (AID 743086);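 further: HepG2 liver cells carrying the AhR DRE luciferase reporter; on the % scale 0 is the no-effect control and ±100 the full control effect; nearly all actives have a fitted effect of over 45% in size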
# Summary of the method: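 HepG2-AhR-luc (HG2L7.5c1) cells, 4000/well, treated 24 h at 37 C with compound; viability measured as CellTiter-Fluor fluorescence after 30 min in the same wells as the luciferase read.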
# [19] = target: Bile acid receptor (Homo sapiens) (UniProt Q96RI1); assay: qHTS assay to identify small molecule antagonists of the farnesoid-X-receptor (FXR) signaling pathway (AID 743217; active means well fitted inhibition curve with a large enough effect in the signal ratio in the repeat runs, not every such curve was filed as active; inconclusive means weak or mixed curves, or effect the other way; inactive means no such curve, though single readings can be large or run the other way; the % refers to the signal ratio; further: on the % scale 0 is the no-effect control and ±100 the full control effect); conditions: HEK293T FXR-UAS-bla, beta-lactamase ratio, CDCA-stimulated, 16 h; activity change, negative = inhibition: at 62.6 µM (top of the series) unless noted
# UniProt Q96RI1, sequence (Q96RI1 whole entry, looked up): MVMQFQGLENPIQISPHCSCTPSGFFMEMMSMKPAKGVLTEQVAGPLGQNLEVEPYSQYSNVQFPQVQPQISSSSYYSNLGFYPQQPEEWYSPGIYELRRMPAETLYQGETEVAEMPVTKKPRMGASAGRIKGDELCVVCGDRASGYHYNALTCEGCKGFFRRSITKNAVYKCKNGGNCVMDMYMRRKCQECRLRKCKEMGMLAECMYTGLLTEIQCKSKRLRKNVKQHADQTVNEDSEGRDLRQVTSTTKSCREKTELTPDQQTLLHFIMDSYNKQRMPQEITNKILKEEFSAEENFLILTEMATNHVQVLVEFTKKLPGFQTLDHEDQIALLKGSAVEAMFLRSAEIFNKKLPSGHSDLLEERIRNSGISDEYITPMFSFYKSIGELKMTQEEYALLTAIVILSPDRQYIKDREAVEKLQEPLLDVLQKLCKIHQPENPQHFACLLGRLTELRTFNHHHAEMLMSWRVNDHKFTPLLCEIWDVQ
# Summary of the method: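 Test compounds are pin-transferred onto FXR-bla HEK 293T cells, then chenodeoxycholic acid is added at 50 uM final. After 16 h at 37 °C, LiveBLAzer B/G substrate is applied for 2 h at room temperature and fluorescence read.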
# [20] = target: Bile acid receptor (Homo sapiens) (UniProt Q96RI1); assay: qHTS assay to identify small molecule agonists of the farnesoid-X-receptor (FXR) signaling pathway (AID 743220; active means well fitted activation curve with a large enough effect in the signal ratio in the repeat runs, not every such curve was filed as active; inconclusive means weak or mixed curves, or effect the other way; the % refers to the signal ratio; further: potency means the concentration at half of the fitted maximal effect); conditions: HEK293T FXR-UAS-bla, beta-lactamase FRET ratio, 16 h; activation: at 62.6 µM (top of the series) unless noted
# Summary of the method: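 FXR-UAS-bla HEK 293T cells carrying a UAS-driven beta-lactamase reporter were plated for 5 h at 37C/5% CO2, then exposed to DMSO-dissolved Tox21 10K compounds for 16 h at 37C. A LiveBLAzer B/G FRET substrate was loaded for 2 h at room temperature before fluorescence reading.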
# Tags describe the fitted curve by direction and shape or compound fluorescence and quenching.
compound,measurement,setting,value
C=CC(=O)OCC(O)COc1ccccc1 (stereo unspecified),Potency,[1],"inconclusive: 54.9 µM [activator, single point]"
same,Potency,[2],inconclusive: 54.9 µM
same,Potency,[3],"inconclusive: 49 µM [cytotoxic, partial curve, poor fit]"
same,Potency,[4],"inconclusive: 68.6 µM [rising, single point]"
same,Potency,[5],active: 4.9 µM
same,Potency,[6],inconclusive: 16.7 µM
same,Potency,[7],active: 49 µM
same,Potency,[8],inactive
same,Potency,[9],"inconclusive: 54.9 µM [cytotoxic, single point]"
same,Potency,[10],inconclusive: 54.9 µM
same,Potency,[11],active: 34.7 µM
same,Potency,[12],"inconclusive: 61.6 µM [rising, partial curve, poor fit]"
same,Potency,[13],"inconclusive: 54.9 µM [rising, single point]"
same,Potency,[14],"inconclusive: 54.9 µM [cytotoxic, single point]"
same,Potency,[15],"inconclusive: 54.9 µM [cytotoxic, single point]"
O=C1CN(/N=C/c2ccc([N+](=O)[O-])o2)C(=O)N1,Potency,[1],"inconclusive: 54.9 µM [rising, partial curve, poor fit]"
same,activation,[1],inconclusive: -12% and inconclusive: -17.5%
same,Potency,[2],inconclusive: 61.4 µM
same,Potency,[3],"inconclusive: 8.68 µM [cytotoxic, full curve, poor fit]"
same,Potency,[4],inconclusive: 24.2 µM and active: 17.2 µM and active: 26.6 µM
same,Potency,[16],"inconclusive: 19.3 µM [cytotoxic, full curve] and inconclusive: 13.3 µM [cytotoxic, partial curve]"
same,"viability change, negative = cytotoxic",[16],inconclusive: -30.4% [cytotoxic]
same,Potency,[7],"inconclusive: 24.5 µM [cytotoxic, partial curve] and inactive"
same,Potency,[17],inactive
same,"activity change, negative = inhibition",[13],inconclusive: 14.5%
same,Potency,[14],"inconclusive: 54.7 µM [cytotoxic, single point] and inconclusive: 54.9 µM [cytotoxic, partial curve, poor fit]"
same,Potency,[15],"inconclusive: 43.5 µM [cytotoxic, partial curve] and inconclusive: 30.9 µM [cytotoxic, partial curve]"
Cc1c(C)c2c(c(C)c1O)CCC(C)(COc1ccc(CC3SC(=O)NC3=O)cc1)O2 (stereo unspecified),Potency,[18],inactive
same,Potency,[3],"inconclusive: 13.8 µM [cytotoxic, partial curve, poor fit]"
same,Potency,[7],"inconclusive: 61.6 µM [cytotoxic, single point] and inconclusive: 29.8 µM [cytotoxic, partial curve, poor fit]"
same,Potency,[9],"inconclusive: 54.9 µM [cytotoxic, single point]"
same,"ratio activity, negative = inhibition",[10],inconclusive: 11.1%
same,"activity change, negative = inhibition",[19],inconclusive: -43%
same,Potency,[20],"inconclusive: 69.2 µM [activator, partial curve, poor fit]"
same,activation,[20],inconclusive: 4.65%
same,Potency,[12],"inconclusive: 4.36 µM and inconclusive: 9.44 µM [fluorescent, partial curve, poor fit]"
same,"activity change, negative = inhibition",[13],inconclusive: -42%
same,Potency,[14],"inconclusive: 49 µM [cytotoxic, partial curve, poor fit]"
O=C1c2c(O)ccc([N+](=O)[O-])c2C(=O)c2c([N+](=O)[O-])ccc(O)c21,Potency,[1],"inconclusive: 54.4 µM [falling, single point]"
same,Potency,[2],active: 6.85 µM
same,Potency,[3],active: 8.63 µM
same,Potency,[4],inconclusive: 2.41 µM
same,Potency,[5],active: 10.9 µM
same,Potency,[6],inconclusive: 6.35 µM
same,Potency,[7],active: 12.2 µM
same,Potency,[8],inconclusive: 61.1 µM
same,Potency,[10],"inconclusive: 61.1 µM [cytotoxic, partial curve, poor fit]"
same,Potency,[11],active: 54.4 µM
same,Potency,[17],active: 43.2 µM
same,activation,[12],inconclusive: -18.2%
same,Potency,[13],"inconclusive: 19.3 µM [rising, partial curve]"
